These results are taken from PubChem BioAssay AID1745853 (National Center for Advancing Translational Sciences (NCATS), 2022).

Where “and” joins values, the source holds several entries; their conditions need not be identical. Equal entries are not always repeated. Some of the results follow. The main result of the screen is listed elsewhere. These columns were measured beside it and carry no call.

What all share (test): Primary Screen for Target Class Profiling of Small Molecule Inhibitors of Methyltransferases
The target in assay [1] is Glycine N-methyltransferase (Homo sapiens) (UniProt Q14749). The conditions noted are these: purified enzyme, MTase-Glo SAH luminescence; measured here: GNMT inhibition; at 40 µM; stronger effect = lower value. Summed up: (§1)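 Each enzyme was assayed with SAM and its substrate. SAH formation detected by MTase-Glo luminescence; single-point 40 uM screen[…].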
Assay [2] has as its target Guanidinoacetate N-methyltransferase (Homo sapiens) (UniProt Q14353). The conditions noted are these: purified enzyme, MTase-Glo SAH luminescence; measured here: GAMT inhibition; at 40 µM; stronger effect = lower value. Summed up: as §1
Assay [3] concerns the target Histamine N-methyltransferase (Homo sapiens) (UniProt P50135). Particulars: purified enzyme, MTase-Glo SAH luminescence; measured here: HNMT inhibition; at 40 µM; stronger effect = lower value. Summed up: as §1
The target in assay [4] is Nicotinamide N-methyltransferase (Homo sapiens) (UniProt P40261). The conditions noted are these: purified enzyme, MTase-Glo SAH luminescence; measured here: NNMT inhibition; at 40 µM; stronger effect = lower value. The gist of the method: as §1
In assay [5] the target is Phenylethanolamine N-methyltransferase (Homo sapiens) (UniProt P11086). The conditions noted are these: purified enzyme, MTase-Glo SAH luminescence; measured here: PNMT inhibition; at 40 µM; stronger effect = lower value. Summed up:
as §1
On the % scale 0 is the no-effect control and ±100 the full control effect.

On to `COc1cc(Nc2nc3c(S(=O)(=O)c4ccccc4)nnn3c3ccccc23)cc(OC)c1`, for which the activity change, negative = inhibition was -0.706% in assay [1]; 1.83% in assay [2]; 4.5% in assay [3]; 8.15% in assay [4]; 0.317% in assay [5].

Turning to `Cc1nnsc1C(=O)Nc1ccc(-n2nc(C(F)(F)F)cc2C(F)(F)F)cc1`, the activity change, negative = inhibition was -2.16% in assay [1]; 3.35% in assay [2]; 9.74% in assay [3]; -14.2% in assay [4]; -4.82% in assay [5].

For the compound `COc1ccccc1CN1C(=O)c2ccc(-c3ccccc3)n2CC1(C)C(=O)NC1CCCCC1` (stereo not drawn), the activity change, negative = inhibition in assay [1] was 1.57%; in assay [2] it was 2.01%; in assay [3], 3.32%; in assay [4] it was -4.81%; in assay [5], -1.11%.

Take `CCC(C)NC(=O)c1ccc2c(=O)n(Cc3ccccc3)c3nn(Cc4cccc(F)c4)c(=O)n3c2c1` (stereo not drawn): the activity change, negative = inhibition in assay [1] was 2.95%; in assay [2] it was 0%; in assay [3], 2.11%; in assay [4], -0.255%; in assay [5], 4.05%.

As to `CCCSc1nc(N[C@@H]2C[C@H]2c2ccc(F)c(F)c2)c2nnn([C@@H]3C[C@H](OCCO)[C@@H](O)[C@H]3O)c2n1`, the activity change, negative = inhibition in assay [1] was -28.5%; in assay [2] it was -13.2% and -4.71%; in assay [3] it was -43.4%; in assay [4] it was -55.5% and -53%; in assay [5] it was -42.1% and -30.6%.

For `CCOc1ccc(CN2C(=O)c3oc4ccccc4c3OCC2(C)C(=O)NC2CCCC2)cc1` (stereo not drawn), the activity change, negative = inhibition in assay [1] is 3.46%; in assay [2], 0.561%; in assay [3], 3.2%; in assay [4], 7.09%; in assay [5], 7.08%.

Take `CCOc1ccc(N2C(=O)c3cc(-c4ccccc4)nn3CC2(C)C(=O)NCc2ccccc2OC)cc1` (stereo not drawn): the activity change, negative = inhibition in assay [1] is 2.27%; in assay [2], 1.83%; in assay [3], 6.34%; in assay [4], 6.49%; in assay [5], -2.73%.

As for `Cc1ccc(N2C(=O)CSc3c(c4ccccc4n3C)C2C(=O)NCc2ccc(F)cc2)cc1C` (stereo not drawn), the activity change, negative = inhibition in assay [1] stood at 0.753%; in assay [2], 0%; in assay [3], 8.72%; in assay [4], 4.68%; in assay [5], 3.02%.

On to `COc1ccc2c(c1)c(NC(C)=O)c1n2CC(C)(C(=O)NC2CCCC2)N(CCC(C)C)C1=O` (stereo not drawn), for which the activity change, negative = inhibition in assay [1] was 7.61%; in assay [2], 0.135%; in assay [3] it was 12.4%; in assay [4], 16%; in assay [5], 5.54%.

Turning to `O=C(Nc1ccc([C@H]2OCC(=O)N(C3CCOCC3)[C@@H]2CO)cc1)c1cnccn1`, the activity change, negative = inhibition in assay [1] is -2.75%; in assay [2], -1.14%; in assay [3], -1.75%; in assay [4] it was -0.173%; in assay [5], 7.87%.

In the case of `CNCCN(C)C(=O)C1CCCN(C2CCN(C3Cc4ccccc4C3)CC2)C1` (stereo not drawn), the activity change, negative = inhibition in assay [1] is -3.11%; in assay [2] it was -4.3%; in assay [3], -2.99%; in assay [4], -6.2%; in assay [5], -5.79%.

For the compound `CC(C)C(=O)N1CCc2[nH]nc(C(=O)NCCCc3ccccc3)c2C1`, the activity change, negative = inhibition in assay [1] was -0.903%; in assay [2] it was 0.224%; in assay [3], -7.85%; in assay [4] it was -13.8%; in assay [5], 2.54%.

With `COc1cccc(CNC(=O)CCn2ccc3cc(S(=O)(=O)N4CCC(C)CC4)ccc32)c1`, the activity change, negative = inhibition in assay [1] is 4.32%; in assay [2], 0%; in assay [3] it was -1.2%; in assay [4], 1.1%; in assay [5], -1.85%.

Regarding `CCc1cccc(NC(=O)Cn2nc3n(C)c(=O)c4ccc(C(=O)NC5CCCC5)cc4n3c2=O)c1`, the activity change, negative = inhibition is -2.36% in assay [1]; 0.657% in assay [2]; -4.11% in assay [3]; -4.88% in assay [4]; -2.13% in assay [5].

With `Cc1noc(C)c1S(=O)(=O)N1CC(c2noc(C3CCCN3C)n2)C1` (stereo not drawn), the activity change, negative = inhibition was -1.2% in assay [1]; 1.64% in assay [2]; 0.383% in assay [3]; 2.97% in assay [4]; 1.59% in assay [5].

Take `Cc1ccnn1CC(=O)N(Cc1ccncc1)Cc1cccc(OCCc2ccc(F)cc2)c1`: the activity change, negative = inhibition was -1.45% in assay [1]; 0.789% in assay [2]; 0.844% in assay [3]; 1.37% in assay [4]; 3.02% in assay [5].

Regarding `Cn1c(=O)c2ccc(C(=O)NC3CCCC3)cc2n2c(=O)n(CC(=O)Nc3ccccc3F)nc12`, the activity change, negative = inhibition in assay [1] is -1.67%; in assay [2] it was -0.843%; in assay [3] it was -1.54%; in assay [4], -1.67%; in assay [5], -1.41%.

In the case of `C=CC(=O)Nc1cccc(Nc2nc(Nc3ccc(Oc4ccnc(C(=O)NC)c4)cc3)ncc2F)c1`, the activity change, negative = inhibition in assay [1] is -23.8%; in assay [2], -10.1%; in assay [3], -66%; in assay [4] it was -51.3%; in assay [5], -10%.

`N[C@H]1C[C@H]1c1ccc(-c2cccc(O)c2)cc1`: the activity change, negative = inhibition in assay [1] is 2.75% and -0.147%; in assay [2], 6.42% and -6.74%; in assay [3], 5.84% and 6.52%; in assay [4] it was -6.39% and -11.1%; in assay [5] it was 3.71% and 2.5%.

In the case of `COc1ccc(-c2cc3n(n2)CC(C)(C(=O)NCc2ccccc2OC)N(c2ccc(C(C)C)cc2)C3=O)cc1` (stereo not drawn), the activity change, negative = inhibition was -3.86% in assay [1]; 0.147% in assay [2]; -4.22% in assay [3]; -6.5% in assay [4]; -8.6% in assay [5].

As for `Cc1cc(C(=O)N2CCCC3(C2)Nc2cccnc2NC3=NCc2ccccc2)nn1C` (stereo not drawn), the activity change, negative = inhibition in assay [1] was -4.09%; in assay [2] it was -3.29%; in assay [3], -2.99%; in assay [4] it was -2.08%; in assay [5], 5.11%.

Take `CC(C)CNC(=O)c1ccc2c(=O)n(Cc3ccccc3)c3nn(Cc4ccccc4Cl)c(=O)n3c2c1`: the activity change, negative = inhibition amounted to 5.54% in assay [1]; 0% in assay [2]; 9.74% in assay [3]; 8.41% in assay [4]; 7.72% in assay [5].

Turning to `COc1ccc2c(c1)C[C@H](C(=O)Nc1ccc(-c3cn[nH]c3)cc1OCCN(C)C)CO2`, the activity change, negative = inhibition was -0.144% in assay [1]; -3.99% in assay [2]; -54.8% in assay [3]; -16.1% in assay [4]; -10.7% in assay [5].

Consider `CC1(C)CCCC2(C)C(CO)C(CO)=CCC12` (stereo not drawn), for which the activity change, negative = inhibition in assay [1] is 1.54%; in assay [2] it was -1.14%; in assay [3], 13.2%; in assay [4], -16.2%; in assay [5] it was -11.3%.

Turning to `CCC(NS(=O)(=O)c1cc(-n2cccn2)ccc1OC)C1CC(O)C1` (stereo not drawn), the activity change, negative = inhibition was -0.777% in assay [1]; -0.967% in assay [2]; 1.3% in assay [3]; -3.48% in assay [4]; 1.3% in assay [5].

On to `CCn1nc(C)c(-c2cc(C(=O)N3CCCCCCNC(=O)CC3)no2)c1C`, for which the activity change, negative = inhibition in assay [1] is -2.84%; in assay [2] it was 1.74%; in assay [3], 0.732%; in assay [4], -1.35%; in assay [5] it was -17.7%.

Consider `O=C1CN(Cc2c(F)cccc2Cl)S(=O)(=O)c2ccccc2N1Cc1ccc(Cl)cc1`, for which the activity change, negative = inhibition in assay [1] is 6.41%; in assay [2], 0.038%; in assay [3], 3.55%; in assay [4], -0.615%; in assay [5], 2.12%.

Take `Cn1cccc1-c1noc(C2CCN(C(=O)CCCc3ccccc3)C2)n1` (stereo not drawn): the activity change, negative = inhibition in assay [1] was -4.36%; in assay [2] it was -1.91%; in assay [3] it was 0.467%; in assay [4] it was -6.49%; in assay [5] it was -1.28%.

In the case of `OCCOCCn1cnc(-c2ccccc2)c1-c1ccccc1Cn1cccn1`, the activity change, negative = inhibition in assay [1] was -0.958%; in assay [2], 0.084%; in assay [3], 0.193%; in assay [4], -3.46%; in assay [5] it was -0.105%.

For the compound `CCc1cc2c(cc3n2CC(C)(C(=O)NC2CCCCCC2)N(c2ccccc2C)C3=O)s1` (stereo not drawn), the activity change, negative = inhibition was determined as 7.94% in assay [1]; 2.18% in assay [2]; 7.14% in assay [3]; 13.4% in assay [4]; 3.93% in assay [5].

Regarding `CC1CCCN(C(=O)Cn2c(=O)oc3cc(S(=O)(=O)NCc4ccccc4)ccc32)C1` (stereo not drawn), the activity change, negative = inhibition is 2.14% in assay [1]; 1.9% in assay [2]; 2.03% in assay [3]; -3.97% in assay [4]; -0.395% in assay [5].

In the case of `c1ccc(-c2[nH]ncc2-c2ccnc3ccccc23)nc1`, the activity change, negative = inhibition in assay [2] is 8.01%; in assay [4], -11.2%; in assay [5], 4.82%.

As for `COc1ccc(C(=O)Cn2nc3n(CC(C)C)c(=O)c4ccccc4n3c2=O)cc1`, the activity change, negative = inhibition was found to be 1.28% in assay [1]; 0.455% in assay [2]; 3.9% in assay [3]; 4.67% in assay [4]; 5.05% in assay [5].

Turning to `CCc1nc(-c2c3n(c(=O)n(CC(=O)OC)c2=O)CCCC3)no1`, the activity change, negative = inhibition in assay [1] is 1.32%; in assay [2], -5.07%; in assay [3], 0.245%; in assay [4], 0.105%; in assay [5] it was 3.37%.

Regarding `O=C(CCc1cnccn1)N1CCC(CCC(=O)N2CCC(Cc3ccccc3)CC2)CC1`, the activity change, negative = inhibition was -2.9% in assay [1]; -0.737% in assay [2]; -0.974% in assay [3]; -3.64% in assay [4]; -0.045% in assay [5].

Consider `O=C(c1cccc(OC2CN(CC3CC=CCC3)C2)c1)N1CCCC1` (stereo not drawn), for which the activity change, negative = inhibition was -2.61% in assay [1]; 1.18% in assay [2]; -19.1% in assay [3]; -4.92% in assay [4]; -2.92% in assay [5].

For `COc1cccc(CNC(=O)CCc2nnc3n(Cc4ccc(F)cc4)c(=O)c4ccccc4n23)c1`, the activity change, negative = inhibition was -14.6% in assay [1]; 4.81% in assay [2]; 0.981% in assay [3]; -8.18% in assay [4]; -4.12% in assay [5].

Take `CCn1c(-c2ccccc2)nn(CC(=O)NCc2ccsc2)c1=O`: the activity change, negative = inhibition in assay [1] was -5.12%; in assay [2], -7.08%; in assay [3], -2.07%; in assay [4] it was -6.07%; in assay [5] it was 1.3%.

In the case of `C=C1CC[C@@H]2[C@](C)(CC[C@H](O)[C@@]2(C)CCC=C(C)C)[C@@H]1Cc1c[nH]c2ccccc12`, the activity change, negative = inhibition in assay [1] was 0%; in assay [2], -3.02%; in assay [3], 0.88%; in assay [4], -16.7%; in assay [5] it was 2.65%.
